The RNAGym collection of RNA variant scans (doi:10.7554/elife.90254)
The source gives no read counts; variants with many changes may rest on few reads.

B1: LINE1-mini (parent)
chain: GGCAGAGCUCAACACAGCGUGGCAAAGUGGCUGUGGCUAGACUGCC

Variants of: B1
Assay: self-cleavage, relative activity (ratio to wild type); higher = more cleavage; in vitro, sequencing; the parent is a self-cleaving ribozyme

Variant	self-cleavage
C10A G40U U43C	0.01
G17U G21C C23U	1.24
G1U A24G A41C	0.02
C8U U34A C42A	0.46
A4C G7C C15A G19U C23G G33A C46A	0.02
C3A A12U G21U	0.19
C15G A24C C42G U43C	0
A4G A11U G30C U32G G35A G36U C37A	0.01
G1U C31G A39G	0.02
C3G C13A G21U A26U	1.56
A16G C23U C31A G33U	0.03
G5A C10G A25G G29A	0.01
A14G C15A C23U C37U A39G	0.11
C15U G35U G36A	0.13
C3U G5A C10A	0.08
G1C C10G G33U	0.03
A14U G29A A39U G44C	0.03
G1U C3A G33C U34C U38G	0.09
A12U C15A G21A	0.05
G1A G2A G29C	0.78
G1U U9A C10A U34G	0.01
G1C G21U C31A	0.04
A4G C15A A26G	0.11
C15U U28G G35U	0.13

Variant	self-cleavage
G1C C15U C31U G35A	0.02
G1U A26U C31A	0.03
G2A G40C C46A	0.05
U9A G19U U20G	0.23
G2U A4U G17C C37U	0.02
C15U A24G U43C	0.07
G1A C8U C18G C31U C45U	0.45
A11G U20A G22A	0.01
A26U U38G G40A	0.12
A4G G5U C15U G17A C42U	0.03
C3G A11G G36U C42U	0
G1C G2C C13A C37G	0
A4G A16C G17C C37A G40U	0.04
G1A C8U U38A A41G	0.64
G2A U9C A16C G33C	0.03
G21U A24U G40U	0.04
G2A U9C G22A C45G	0.06
A6C C13A C23U U38G	0.07
A6G G7U U20C	0.09
G19U C23G G40U	0.09
A14C U32A U34G	0.03
A12G G17A C42G	0.04
A16G A25U U28C G40A	0.09
A4G A24G G27C U28G G40U	0.06

Variant	self-cleavage
G1U A4U A11U C13A	0.01
C31G G35U A39U	0
G19C G21U C31A C42G	0.07
A11C A14C G17C C23A C46A	0.02
G1A G7U C10U G29C	0.01
G1A U9C G19U G33A G35U	0.04
G17A G19A C23U G29U G44A	0.01
G1A U9C G29C C45A	0.06
A4C G17A U34A	0.02
C3G A11G C18A C31G G33A U43G G44U	0
A11U C13U A14G C18A G33A C37A G40C	0.01
C31G U32C C42A	0
G5C G7C G21U	0.08
G1A G7U A14C C37U	0.01
C23U G33C C46G	0.06
A25C G27C C46A	0.46
A12C G36C G40U G44U	0
G2C C8G G33A U38G	0.09
G30U U32C G33C U34G	0
C10G A14C A39C C42U	0
A25U G27A G33A C46A	0.07
U9G C10U A41U	0.03
G5A A41G G44A	0.1
G1A A14U G21U G33U A41U	0.19

Variant	self-cleavage
U20C A39U A41C	0.02
U9C A26G U28C C37G A41U	0.01
A16U G36U A41U	0.09
G17U C31A G44A	0.43
A12G G36U G40A	0.06
C3U U20C G29U G35C C37U C46A	0.02
A14C G29A A39U	0.08
A11G U20G U28A G29U	0.01
C3U C10A G44U	0.09
G5A C8A C10U G22C	0
U9G G22A U28A	0.04
C18A C31G C46U	0.1
G29U G40U C42G	0.08
C3U A12U A16C G22U C42U	0
G5U C23A U28C G35U U38A G40U	0.01
G7U A11U G27C U34A C37U	0.01
C10U C13U A14G	0.04
C3A A25U G29U A39C	1.12
A14G G17U G29A	0.12
U9A A14U C45A	0.23
G22U C23A C42G	0.05
G7A A12C C13U G19A C42A	0.06
G2C U9G G35U G40A	0
A11C G19C G36C G40A A41G	0.02

Variant	self-cleavage
G2A C8G G22A U34A	0.13
A16U U28A C31U	0.01
U28C C31G A41G	0
U9C A14C G22A A25G	0.01
A24G C31U G44U	0
G1A C15U U34C	0.14
A26G G35C C46A	0.05
A6G G19U A39U G44A	0.06
C10G A11U A14C G19A	0.02
G2A A26C C42U	0.21
C13U C37A U38G	0.02
C15U G27A U34C U43C	0.04
C31G G36A C37U U43A	0.28
G22U G33U C46G	0.07
G1C C23G G33C C37A	0
U9C A26G U43C	0.04
C3U U9A G19A C42A	0.04
A6C A12C A16C C42U	0.12
C18A G22A A24U U34C G40C	0.01
C15G G27C G40U	0.02
G30A A39G C46A	0.15
G22C C45U C46U	0.21
G1A C10G C37U C42A	0.02
C3U C10A C23A C31U	0.04

Variant	self-cleavage
G1C A4C A12G C13U A16C G44C	0.01
A6U C13A C37A	0.04
C3A C10A A12U A41U C46A	0.03
A11G C15A C18A G22U G40U	0.01
A4G C13A A14C A16C C42G	0.05
A16G C18U A25C U34G	0.02
C18A C23G A25G	0.11
C3G A14C A25U C46G	0.01
G17C U20A C31G	0.29
G22U C37G G40U	0.06
C3G C10U A14U G30U C46U	0.08
G2U U9G A11G G21C C31U	0
A6G C10A C18U G30A	0.04
G7U G27A G29A	0.12
U9G C31U G35U	0.02
C3U C8A A25C	0.12
A4G C8U U38G	0.09
G1A A26C U28G	0.3
C15A C37U C42A	0.02
C10U U20C C45U	0.09
C18G C23U A25U G27A U38A	0.39
C10G U20A G30C A39G	0.01
A6C C31U C37G	0.05
C3G C8U A26C	0.42

Variant	self-cleavage
G7C C8G G44U C46U	0.03
G1A U9G C13A A14C	0.05
G1U A11U U28G	0.03
A12C G22C U28C U43C	0.01
G7A U9C C13G U20A	0.02
U9C G27A G29A	0.03
A4G G27A G36U	0.06
G2U U9G G40U	0.06
A4C G7A C10G A11U G22U C37G	0.01
C15A U20C C23U A41C	0.05
A14U C23U A41C	0.04
C10A A14C G29U	0.02
G5U G27A C37U	0.04
G17U C23U U38G	0.02
A12G A26U C31G	0.13
C13U A24C G29C G36U	0.06
A4C A14G U34C A41C	0.02
A6U U28C G29C U34C	0.11
G5U C10G G22U	0.02
A4C U20A C23U	0.06
A14C G30C G36A	0.26
G21U C31A C37A	0.25
A4C A25G C46A	0.21
